# This is one part of the list.
# B1: AT1G15820(NC) (Arabidopsis thaliana) (protein)
# chain: MAMAVSGAVLSGLGSSFLTGGKRGATALASGVGDAIAPFSFGSLLGTQLLLMGWVESKRWVDFFNPDSQSVEWATPWSKTAENFANYTGDQGYPGGRFFDPLGLAGKNRDGVYEPDFEKLERLKLAEIKHSRLAMVAMLIFYFEAGQGKTPLGALGL
# Tests used:
# Experiment in all cases: glycan array binding signal (z-score within array); higher = stronger binding
# Settings in all cases: glycan notation: IUPAC condensed, linker removed
# [1] = biological target: Gal(b1-4)GlcNAc(b1-2)[Gal(b1-4)GlcNAc(b1-6)]Man(a1-6)[GlcNAc(b1-4)][Gal(b1-4)GlcNAc(b1-2)Man(a1-3)]Man(b1-4)GlcNAc(b1-4)GlcNAc
# Outline: (§1)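 From the Consortium for Functional Glycomics database, 3228 arrays were curated, keeping only those whose protein sequence was available. Binding is given as a within-array Z-score averaged across arrays sharing a protein sequence and across linkers. Negative Z-scores can be read as non-binding.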
# [2] = biological target: Gal(b1-4)GlcNAc(b1-2)[Gal(b1-4)GlcNAc(b1-6)]Man(a1-6)[GlcNAc(b1-4)][Gal(b1-4)GlcNAc(b1-2)[Gal(b1-4)GlcNAc(b1-4)]Man(a1-3)]Man(b1-4)GlcNAc(b1-4)[Fuc(a1-6)]GlcNAc
# Outline: as §1
# [3] = biological target: Gal(b1-4)GlcNAc(b1-3)Gal(b1-3)GalNAc
# Outline: as §1
# [4] = biological target: Gal(b1-4)GlcNAc(b1-3)Gal(b1-3)GlcNAc
# Outline: as §1
# [5] = biological target: Gal(b1-4)GlcNAc(b1-3)Gal(b1-4)Glc
# Outline: as §1
# [6] = biological target: Gal(b1-4)GlcNAc(b1-3)Gal(b1-4)GlcNAc
# Outline: as §1
# [7] = biological target: Gal(b1-4)GlcNAc(b1-3)Gal(b1-4)GlcNAc(b1-2)Man(a1-3)[Gal(b1-4)GlcNAc(b1-3)Gal(b1-4)GlcNAc(b1-2)Man(a1-6)]Man(b1-4)GlcNAc(b1-4)GlcNAc
# Outline: as §1
# [8] = biological target: Gal(b1-4)GlcNAc(b1-3)Gal(b1-4)GlcNAc(b1-2)Man(a1-3)[Gal(b1-4)GlcNAc(b1-3)Gal(b1-4)GlcNAc(b1-2)Man(a1-6)]Man(b1-4)GlcNAc(b1-4)[Fuc(a1-6)]GlcNAc
# Outline: as §1
# [9] = biological target: Gal(b1-4)GlcNAc(b1-3)Gal(b1-4)GlcNAc(b1-2)[Gal(b1-4)GlcNAc(b1-3)Gal(b1-4)GlcNAc(b1-6)]Man(a1-6)[Gal(b1-4)GlcNAc(b1-3)Gal(b1-4)GlcNAc(b1-2)Man(a1-3)]Man(b1-4)GlcNAc(b1-4)GlcNAc
# Outline: as §1
# [10] = biological target: Gal(b1-4)GlcNAc(b1-3)Gal(b1-4)GlcNAc(b1-2)[Gal(b1-4)GlcNAc(b1-3)Gal(b1-4)GlcNAc(b1-6)]Man(a1-6)[Gal(b1-4)GlcNAc(b1-3)Gal(b1-4)GlcNAc(b1-2)Man(a1-3)]Man(b1-4)GlcNAc(b1-4)[Fuc(a1-6)]GlcNAc
# Outline: as §1
# [11] = biological target: Gal(b1-4)GlcNAc(b1-3)Gal(b1-4)GlcNAc(b1-3)Gal(b1-4)GlcNAc
# Outline: as §1
# [12] = biological target: Gal(b1-4)GlcNAc(b1-3)Gal(b1-4)GlcNAc(b1-3)Gal(b1-4)GlcNAc(b1-2)Man(a1-3)[Gal(b1-4)GlcNAc(b1-3)Gal(b1-4)GlcNAc(b1-3)Gal(b1-4)GlcNAc(b1-2)Man(a1-6)]Man(b1-4)GlcNAc(b1-4)GlcNAc
# Outline: as §1
# [13] = biological target: Gal(b1-4)GlcNAc(b1-3)Gal(b1-4)GlcNAc(b1-3)Gal(b1-4)GlcNAc(b1-2)Man(a1-3)[Gal(b1-4)GlcNAc(b1-3)Gal(b1-4)GlcNAc(b1-3)Gal(b1-4)GlcNAc(b1-2)Man(a1-6)]Man(b1-4)GlcNAc(b1-4)[Fuc(a1-6)]GlcNAc
# Outline: as §1
# [14] = biological target: Gal(b1-4)GlcNAc(b1-3)Gal(b1-4)GlcNAc(b1-3)Gal(b1-4)GlcNAc(b1-2)[Gal(b1-4)GlcNAc(b1-3)Gal(b1-4)GlcNAc(b1-3)Gal(b1-4)GlcNAc(b1-6)]Man(a1-6)[Gal(b1-4)GlcNAc(b1-3)Gal(b1-4)GlcNAc(b1-3)Gal(b1-4)GlcNAc(b1-2)Man(a1-3)]Man(b1-4)GlcNAc(b1-4)[Fuc(a1-6)]GlcNAc
# Outline: as §1
# [15] = biological target: Gal(b1-4)GlcNAc(b1-3)Gal(b1-4)GlcNAc(b1-3)Gal(b1-4)GlcNAc(b1-3)Gal(b1-4)GlcNAc(b1-2)Man(a1-3)[Gal(b1-4)GlcNAc(b1-3)Gal(b1-4)GlcNAc(b1-3)Gal(b1-4)GlcNAc(b1-3)Gal(b1-4)GlcNAc(b1-2)Man(a1-6)]Man(b1-4)GlcNAc(b1-4)GlcNAc
# Outline: as §1
# [16] = biological target: Gal(b1-4)GlcNAc(b1-3)Gal(b1-4)GlcNAc(b1-3)Gal(b1-4)GlcNAc(b1-3)Gal(b1-4)GlcNAc(b1-2)Man(a1-3)[Gal(b1-4)GlcNAc(b1-3)Gal(b1-4)GlcNAc(b1-3)Gal(b1-4)GlcNAc(b1-3)Gal(b1-4)GlcNAc(b1-2)Man(a1-6)]Man(b1-4)GlcNAc(b1-4)[Fuc(a1-6)]GlcNAc
# Outline: as §1
# [17] = biological target: Gal(b1-4)GlcNAc(b1-3)Gal(b1-4)GlcNAc(b1-3)Gal(b1-4)GlcNAc(b1-3)Gal(b1-4)GlcNAc(b1-2)[Gal(b1-4)GlcNAc(b1-3)Gal(b1-4)GlcNAc(b1-3)Gal(b1-4)GlcNAc(b1-3)Gal(b1-4)GlcNAc(b1-6)]Man(a1-6)[Gal(b1-4)GlcNAc(b1-3)Gal(b1-4)GlcNAc(b1-3)Gal(b1-4)GlcNAc(b1-3)Gal(b1-4)GlcNAc(b1-2)Man(a1-3)]Man(b1-4)GlcNAc(b1-4)[Fuc(a1-6)]GlcNAc
# Outline: as §1
# [18] = biological target: Gal(b1-4)GlcNAc(b1-3)Gal(b1-4)GlcNAc(b1-3)Gal(b1-4)GlcNAc(b1-3)Gal(b1-4)GlcNAc(b1-3)Gal(b1-4)GlcNAc(b1-2)Man(a1-3)[Gal(b1-4)GlcNAc(b1-3)Gal(b1-4)GlcNAc(b1-3)Gal(b1-4)GlcNAc(b1-3)Gal(b1-4)GlcNAc(b1-3)Gal(b1-4)GlcNAc(b1-2)Man(a1-6)]Man(b1-4)GlcNAc(b1-4)GlcNAc
# Outline: as §1
# [19] = biological target: Gal(b1-4)GlcNAc(b1-3)Gal(b1-4)GlcNAc(b1-3)Gal(b1-4)GlcNAc(b1-3)Gal(b1-4)GlcNAc(b1-3)Gal(b1-4)GlcNAc(b1-2)Man(a1-3)[Gal(b1-4)GlcNAc(b1-3)Gal(b1-4)GlcNAc(b1-3)Gal(b1-4)GlcNAc(b1-3)Gal(b1-4)GlcNAc(b1-3)Gal(b1-4)GlcNAc(b1-2)Man(a1-6)]Man(b1-4)GlcNAc(b1-4)[Fuc(a1-6)]GlcNAc
# Outline: as §1
# [20] = biological target: Gal(b1-4)GlcNAc(b1-3)Gal(b1-4)GlcNAc(b1-3)Gal(b1-4)GlcNAc(b1-3)Gal(b1-4)GlcNAc(b1-3)Gal(b1-4)GlcNAc(b1-2)[Gal(b1-4)GlcNAc(b1-3)Gal(b1-4)GlcNAc(b1-3)Gal(b1-4)GlcNAc(b1-3)Gal(b1-4)GlcNAc(b1-3)Gal(b1-4)GlcNAc(b1-6)]Man(a1-6)[Gal(b1-4)GlcNAc(b1-3)Gal(b1-4)GlcNAc(b1-3)Gal(b1-4)GlcNAc(b1-3)Gal(b1-4)GlcNAc(b1-3)Gal(b1-4)GlcNAc(b1-2)Man(a1-3)]Man(b1-4)GlcNAc(b1-4)[Fuc(a1-6)]GlcNAc
# Outline: as §1
# [21] = biological target: Gal(b1-4)GlcNAc(b1-3)Gal(b1-4)GlcNAc(b1-3)Gal(b1-4)GlcNAc(b1-3)Gal(b1-4)GlcNAc(b1-3)Gal(b1-4)GlcNAc(b1-3)Gal(b1-4)GlcNAc(b1-2)Man(a1-3)[Gal(b1-4)GlcNAc(b1-3)Gal(b1-4)GlcNAc(b1-3)Gal(b1-4)GlcNAc(b1-3)Gal(b1-4)GlcNAc(b1-3)Gal(b1-4)GlcNAc(b1-3)Gal(b1-4)GlcNAc(b1-2)Man(a1-6)]Man(b1-4)GlcNAc(b1-4)GlcNAc
# Outline: as §1
# [22] = biological target: Gal(b1-4)GlcNAc(b1-3)Gal(b1-4)GlcNAc(b1-3)GalNAc
# Outline: as §1
# [23] = biological target: Gal(b1-4)GlcNAc(b1-3)Gal(b1-4)GlcNAc(b1-3)[Gal(b1-4)GlcNAc(b1-3)Gal(b1-4)GlcNAc(b1-6)]GalNAc
# Outline: as §1
binder,measurement,setting,value
B1,glycan array binding signal (z-score),[1],-0.621
same,glycan array binding signal (z-score),[2],-0.225
same,glycan array binding signal (z-score),[3],-0.449
same,glycan array binding signal (z-score),[4],-0.387
same,glycan array binding signal (z-score),[5],3.65
same,glycan array binding signal (z-score),[6],-0.397
same,glycan array binding signal (z-score),[7],0.069
same,glycan array binding signal (z-score),[8],-0.217
same,glycan array binding signal (z-score),[9],0.005
same,glycan array binding signal (z-score),[10],0.273
same,glycan array binding signal (z-score),[11],-0.478
same,glycan array binding signal (z-score),[12],0.286
same,glycan array binding signal (z-score),[13],-0.569
same,glycan array binding signal (z-score),[14],0.31
same,glycan array binding signal (z-score),[15],0.202
same,glycan array binding signal (z-score),[16],-0.299
same,glycan array binding signal (z-score),[17],-0.41
same,glycan array binding signal (z-score),[18],0.01
same,glycan array binding signal (z-score),[19],-0.115
same,glycan array binding signal (z-score),[20],0.985
same,glycan array binding signal (z-score),[21],0.039
same,glycan array binding signal (z-score),[22],0.208
same,glycan array binding signal (z-score),[23],4.39

# From the supplement of paper PMC8728848
